Test results: the supplement of paper PMC8728848
The list shows a part of the results.

Columns and labels:
Assay in all cases: glycan array binding signal (z-score within array); higher = stronger binding
Conditions in all cases: glycan notation: IUPAC condensed, linker removed
[1] = molecular target: Gal(b1-4)GlcNAc(b1-2)[Gal(b1-4)GlcNAc(b1-4)]Man(a1-3)[Gal(b1-4)GlcNAc(b1-2)[Gal(b1-4)GlcNAc(b1-6)]Man(a1-6)]Man(b1-4)GlcNAc(b1-4)GlcNAc
Method in brief: (§1)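 Glycan array data were curated from 3228 arrays in the Consortium for Functional Glycomics database and kept only where the protein sequence was available. Glycan names were converted to IUPAC-condensed notation, and columns mapping to the same glycan were averaged. The binding signal is a within-array Z-score, averaged across arrays of the same protein sequence at different concentrations or buffers and across linkers. Negative Z-scores can be read as non-binding.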

[2] = molecular target: Gal(b1-4)GlcNAc(b1-2)[Gal(b1-4)GlcNAc(b1-4)]Man(a1-3)[GlcNAc(b1-4)][Gal(b1-4)GlcNAc(b1-2)Man(a1-6)]Man(b1-4)GlcNAc(b1-4)GlcNAc
Method in brief: as §1

[3] = molecular target: Gal(b1-4)GlcNAc(b1-2)[Gal(b1-4)GlcNAc(b1-6)]Man(a1-6)[GlcNAc(b1-4)][Gal(b1-4)GlcNAc(b1-2)Man(a1-3)]Man(b1-4)GlcNAc(b1-4)GlcNAc
Method in brief: as §1

[4] = molecular target: Gal(b1-4)GlcNAc(b1-3)Gal(b1-3)GlcNAc
Method in brief: as §1

[5] = molecular target: Gal(b1-4)GlcNAc(b1-3)Gal(b1-4)Glc
Method in brief: as §1

[6] = molecular target: Gal(b1-4)GlcNAc(b1-3)Gal(b1-4)GlcNAc
Method in brief: as §1

[7] = molecular target: Gal(b1-4)GlcNAc(b1-3)Gal(b1-4)GlcNAc(b1-3)Gal(b1-4)GlcNAc
Method in brief: as §1

[8] = molecular target: Gal(b1-4)GlcNAc(b1-3)Gal(b1-4)[Fuc(a1-3)GlcNAc(b1-6)]Gal(b1-4)Glc
Method in brief: as §1

[9] = molecular target: Gal(b1-4)GlcNAc(b1-3)Gal(b1-4)[Fuc(a1-3)]GlcNAc(b1-3)Gal(b1-4)[Fuc(a1-3)]GlcNAc
Method in brief: as §1

[10] = molecular target: Gal(b1-4)GlcNAc(b1-3)GalNAc
Method in brief: as §1

[11] = molecular target: Gal(b1-4)GlcNAc(b1-3)[Gal(b1-4)GlcNAc(b1-6)]Gal(b1-4)GlcNAc
Method in brief: as §1

[12] = molecular target: Gal(b1-4)GlcNAc(b1-3)[Gal(b1-4)GlcNAc(b1-6)]GalNAc
Method in brief: as §1

[13] = molecular target: Gal(b1-4)GlcNAc(b1-3)[GlcNAc(b1-6)]Gal(b1-4)GlcNAc
Method in brief: as §1

[14] = molecular target: Gal(b1-4)GlcNAc(b1-6)Gal(b1-4)GlcNAc
Method in brief: as §1

[15] = molecular target: Gal(b1-4)GlcNAc(b1-6)GalNAc
Method in brief: as §1

[16] = molecular target: Gal(b1-4)GlcNAc(b1-6)[Gal(b1-3)]GalNAc
Method in brief: as §1

Gal(b1-6)Gal = molecular target: Gal(b1-6)Gal
Method in brief: as §1

Gal3S(b1-3)GalNAc = molecular target: Gal3S(b1-3)GalNAc
Method in brief: as §1

Gal3S(b1-3)GlcNAc = molecular target: Gal3S(b1-3)GlcNAc
Method in brief: as §1

[17] = molecular target: Gal3S(b1-3)[Fuc(a1-4)]GlcNAc
Method in brief: as §1

Gal3S(b1-4)Glc = molecular target: Gal3S(b1-4)Glc
Method in brief: as §1

Gal3S(b1-4)Glc6S = molecular target: Gal3S(b1-4)Glc6S
Method in brief: as §1

Gal3S(b1-4)GlcNAc = molecular target: Gal3S(b1-4)GlcNAc
Method in brief: as §1

Gal3S(b1-4)GlcNAc6S = molecular target: Gal3S(b1-4)GlcNAc6S
Method in brief: as §1

[18] = molecular target: Gal3S(b1-4)[Fuc(a1-3)]Glc
Method in brief: as §1

[19] = molecular target: Gal3S(b1-4)[Fuc(a1-3)]Glc6S
Method in brief: as §1

Gal3S4S(b1-4)GlcNAc = molecular target: Gal3S4S(b1-4)GlcNAc
Method in brief: as §1

Gal3S6S(b1-4)GlcNAc = molecular target: Gal3S6S(b1-4)GlcNAc
Method in brief: as §1

Gal3S6S(b1-4)GlcNAc6S = molecular target: Gal3S6S(b1-4)GlcNAc6S
Method in brief: as §1

Gal4S(b1-4)GlcNAc = molecular target: Gal4S(b1-4)GlcNAc
Method in brief: as §1

Gal4S6S(b1-4)GlcNAc = molecular target: Gal4S6S(b1-4)GlcNAc
Method in brief: as §1

Gal6S(b1-3)GlcNAc = molecular target: Gal6S(b1-3)GlcNAc
Method in brief: as §1

Gal6S(b1-3)GlcNAc6S = molecular target: Gal6S(b1-3)GlcNAc6S
Method in brief: as §1

Gal6S(b1-4)Glc = molecular target: Gal6S(b1-4)Glc
Method in brief: as §1

Gal6S(b1-4)Glc6S = molecular target: Gal6S(b1-4)Glc6S
Method in brief: as §1

Gal6S(b1-4)GlcNAc = molecular target: Gal6S(b1-4)GlcNAc
Method in brief: as §1

Gal6S(b1-4)GlcNAc6S = molecular target: Gal6S(b1-4)GlcNAc6S
Method in brief: as §1

GalNAc(a1-3)Gal = molecular target: GalNAc(a1-3)Gal
Method in brief: as §1

GalNAc(a1-3)GalNAc = molecular target: GalNAc(a1-3)GalNAc
Method in brief: as §1

[20] = molecular target: GalNAc(a1-3)GalNAc(a1-3)Gal(a1-4)Gal(b1-4)GlcNAc
Method in brief: as §1

[21] = molecular target: GalNAc(a1-3)GalNAc(b1-3)Gal(a1-4)Gal(b1-4)Glc
Method in brief: as §1

GalNAc(b1-3)Gal = molecular target: GalNAc(b1-3)Gal
Method in brief: as §1

[22] = molecular target: GalNAc(b1-3)Gal(a1-4)Gal(b1-4)GlcNAc
Method in brief: as §1

[23] = molecular target: GalNAc(b1-3)Gal(a1-4)Gal(b1-4)GlcNAc(b1-3)Gal(b1-4)Glc
Method in brief: as §1

[24] = molecular target: GalNAc(b1-3)Gal(a1-6)Gal(b1-4)Glc
Method in brief: as §1

B1: SEX4 (Arabidopsis thaliana), Q944A8 (protein)
chain: TQAMGAVLTYRHELGMNYNFIRPDLIVGSCLQTPEDVDKLRKIGVKTIFCLQQDPDLEYFGVDISSIQAYAKKYSDIQHIRCEIRDFDAFDLRMRLPAVVGTLYKAVKRNGGVTYVHCTAGMGRAPAVALTYMFWVQGYKLMEAHKLLMSKRSCFPKLDAIRNATIDILTGLKRKTVTLTLKDKGFSRVEISGLDIGWGQRIPLTLGKGTGFWILKRELPEGQFEYKYIIDGEWTHNEAEPFIGPNKDGHTNNYAKVVDDPTSVDGTTRERLSSEDPELLEEERSKLIQFLETCSEAEV
For B1, the “glycan array binding signal (z-score)” value [1] was -0.426, the “glycan array binding signal (z-score)” value [2] was 1.23 and the “glycan array binding signal (z-score)” value [3] was 0.037. The “glycan array binding signal (z-score)” value [4] was -0.483, the “glycan array binding signal (z-score)” value [5] was 0.372 and the “glycan array binding signal (z-score)” value [6] was -0.268. For the same binder, the “glycan array binding signal (z-score)” value [7] was -0.022, the “glycan array binding signal (z-score)” value [8] was -0.404 and the “glycan array binding signal (z-score)” value [9] was -0.35. The “glycan array binding signal (z-score)” value [10] was -0.46, the “glycan array binding signal (z-score)” value [11] was 0.346 and the “glycan array binding signal (z-score)” value [12] was 0.324. For the same binder, the “glycan array binding signal (z-score)” value [13] was -0.354, the “glycan array binding signal (z-score)” value [14] was -0.195 and the “glycan array binding signal (z-score)” value [15] was -0.548. The “glycan array binding signal (z-score)” value [16] was 0.217, the “glycan array binding signal (z-score)” value (Gal(b1-6)Gal) was -0.165 and the “glycan array binding signal (z-score)” value (Gal3S(b1-3)GalNAc) was -0.502. For the same binder, the “glycan array binding signal (z-score)” value (Gal3S(b1-3)GlcNAc) was -0.45, the “glycan array binding signal (z-score)” value [17] was -0.443 and the “glycan array binding signal (z-score)” value (Gal3S(b1-4)Glc) was -0.369. For the same binder, the “glycan array binding signal (z-score)” value (Gal3S(b1-4)Glc6S) was 1.2, the “glycan array binding signal (z-score)” value (Gal3S(b1-4)GlcNAc) was -0.489 and the “glycan array binding signal (z-score)” value (Gal3S(b1-4)GlcNAc6S) was 0.229. For the same binder, the “glycan array binding signal (z-score)” value [18] was 0.333, the “glycan array binding signal (z-score)” value [19] was 1.79 and the “glycan array binding signal (z-score)” value (Gal3S4S(b1-4)GlcNAc) was 0.253. The “glycan array binding signal (z-score)” value (Gal3S6S(b1-4)GlcNAc) was -0.067, the “glycan array binding signal (z-score)” value (Gal3S6S(b1-4)GlcNAc6S) was 2.76 and the “glycan array binding signal (z-score)” value (Gal4S(b1-4)GlcNAc) was -0.381. The “glycan array binding signal (z-score)” value (Gal4S6S(b1-4)GlcNAc) was 0.374, the “glycan array binding signal (z-score)” value (Gal6S(b1-3)GlcNAc) was -0.273 and the “glycan array binding signal (z-score)” value (Gal6S(b1-3)GlcNAc6S) was 1.27. For the same binder, the “glycan array binding signal (z-score)” value (Gal6S(b1-4)Glc) was 0.288, the “glycan array binding signal (z-score)” value (Gal6S(b1-4)Glc6S) was 1.62 and the “glycan array binding signal (z-score)” value (Gal6S(b1-4)GlcNAc) was 0.104. For the same binder, the “glycan array binding signal (z-score)” value (Gal6S(b1-4)GlcNAc6S) was 0.852, the “glycan array binding signal (z-score)” value (GalNAc(a1-3)Gal) was -0.582 and the “glycan array binding signal (z-score)” value (GalNAc(a1-3)GalNAc) was -0.542. For the same binder, the “glycan array binding signal (z-score)” value [20] was -0.189, the “glycan array binding signal (z-score)” value [21] was -0.507 and the “glycan array binding signal (z-score)” value (GalNAc(b1-3)Gal) was -0.521. The “glycan array binding signal (z-score)” value [22] was -0.406, the “glycan array binding signal (z-score)” value [23] was -0.129 and the “glycan array binding signal (z-score)” value [24] was -0.059.
